Among the data in the RNAGym collection of RNA variant scans (doi:10.7554/elife.90254) are self-cleavage values, retold here.

Read counts are not given, so values of variants with three or more changes are uncertain.

To fix the notation:
B1: LINE1-full (parent)
chain: UACGUAGGUGGUUUUCCCCUGAUAGUGCUAAGGGGGCCUGGAAGUUUGGACUGGGCAGAGCUCAACACAGCGUGGCAAAGUGGCUGUGGCUAGACUGCCUCUCUGGAUUCCUCGUCACUCAGCAGGGCAUCUCUGAGAGAAAUGCC

The variants in this data set derive from B1. Put plainly: self-cleavage, relative activity (ratio to wild type); higher = more cleavage; in vitro, sequencing; the parent is a self-cleaving ribozyme.
Regarding G34A C120U A138G, the self-cleavage worked out at 0.77.

For the variant G36U A117U A124G, the self-cleavage came to 0.8.

Turning to G36U A78G U104A U143G, the self-cleavage was 1.54.

Regarding G34A U85C G106A U112A, the self-cleavage was 0.11.

With G35C A64G A67U G70A U85C A140G, the self-cleavage came out at 0.04.

For G36A U112C A141G, the self-cleavage was found to be 1.43.

In the case of G35U A77G A94G, the self-cleavage was found to be 0.41.

Turning to G36A U39C A64G U119C U132C A141G, the self-cleavage came to 0.

Turning to G36A A65G U132A, the self-cleavage was 0.02.

Turning to G34U U47G A138G, the self-cleavage amounted to 0.76.

For the variant G35C U62C U119A, the self-cleavage was 0.06.

As to G34A A124C G139U, the self-cleavage was found to be 1.21.

As to G34A G75A U102A A142G, the self-cleavage came out at 1.04.

Turning to G35C C51A U119A, the self-cleavage turned out to be 1.27.

As for G35A U45C C76U, the self-cleavage came out at 0.78.

Turning to G34A A77G G88A A124U, the self-cleavage turned out to be 0.11.

For G36C A42U A59G G89A, the self-cleavage came out at 0.14.

With G35U U108A A129G U134C A140G, the self-cleavage worked out at 1.46.

Consider G36A A57U A79G C133A A142G, for which the self-cleavage was 0.04.

As for G35U G72A A129G A140G, the self-cleavage came to 1.21.

For the variant G34U U62C A79G U115C, the self-cleavage came to 0.

As to G35A U47A A78U, the self-cleavage turned out to be 1.47.

As for G36A A94G U102C, the self-cleavage amounted to 0.32.

Consider G33U U100C A124G, for which the self-cleavage stood at 1.76.

For G35A A42U U52C A79U A141G, the self-cleavage is 0.3.

With G35A G106A U112C U119C U132C U143A, the self-cleavage was 1.44.

With G34C A65G U85A, the self-cleavage came to 0.

Turning to G34A A67G A78G, the self-cleavage was 0.19.

With G36A A43G U73C, the self-cleavage is 0.

For G34U U100C A136G, the self-cleavage turned out to be 2.15.

Turning to G34A A59U U87C, the self-cleavage came to 0.17.

Turning to G36C A64U A79U, the self-cleavage was 0.56.

For the variant G36A G135A A141G, the self-cleavage turned out to be 1.25.

G36U C37U U100C A136U: the self-cleavage was 1.14.

With G34A U130C U132C, the self-cleavage is 1.3.

As to C37G G40A U115C G125U, the self-cleavage is 1.2.

Turning to G35U A92G U100A U130C A140G G144A, the self-cleavage worked out at 1.15.

For the variant G36C A50G A77U U104C A142G, the self-cleavage amounted to 0.38.

On to G34C A59U U104C G139U, for which the self-cleavage was found to be 0.

Consider G34A G41U A64U U73C U87C, for which the self-cleavage is 0.05.

As to G35C G83A G106A A124G, the self-cleavage is 0.31.

G33U A57U A124U: the self-cleavage stood at 0.11.

In the case of G36A U100C A107G U108A G144U, the self-cleavage worked out at 1.72.

Consider G36A U39C A64G U96A, for which the self-cleavage is 0.06.

On to G34A U91A A92G, for which the self-cleavage was determined as 0.09.

For G36A A64U U132A, the self-cleavage is 0.

Consider G34U A94U G122U, for which the self-cleavage is 0.19.

For G36A U102C G105A U143C, the self-cleavage came out at 1.28.

For the variant G33U A57U U62C, the self-cleavage is 0.06.

For the variant G35A A65G A77U A121U, the self-cleavage was determined as 0.04.

On to G35U U46C A117U A129G A140G, for which the self-cleavage was 1.74.

As to G35A A64G A77U A117G A129G, the self-cleavage amounted to 0.16.

For the variant G35A U47C G114A, the self-cleavage came out at 1.21.

In the case of G35A C76U U100C A124G, the self-cleavage was determined as 1.95.

G35U G105U A142G: the self-cleavage worked out at 0.87.

With C37A A77U A79G C90U A141G, the self-cleavage was found to be 0.02.

For C37A A94G A121G, the self-cleavage stood at 0.21.

For G34C G54A A57G A67U C133A, the self-cleavage came to 0.12.

Regarding G34A U46C U47G, the self-cleavage was 0.84.

G36U A64U U115A U134A C146U: the self-cleavage was 0.4.

Regarding G33U A69C U91C A124U A129G, the self-cleavage came out at 0.

For G35U A57U U85C U108C U115C, the self-cleavage came out at 0.2.

In the case of G35A A42G A129U, the self-cleavage stood at 1.2.

Turning to G34U U52C U108C U112C, the self-cleavage was determined as 1.08.

On to G36U U91C U100A U108C A121U A142G, for which the self-cleavage came to 0.05.

Turning to G36C U52A U130A, the self-cleavage came to 0.29.

For G36A U39A U85C U143A, the self-cleavage stood at 0.13.

Take G33U U130C A140G: the self-cleavage was determined as 1.78.

Regarding C37G A42G U81A, the self-cleavage came to 2.23.

Turning to G34U U112C U115C A124U, the self-cleavage was 1.13.

As to G36C A43G A59U, the self-cleavage came out at 0.81.

G35U A64G U108C: the self-cleavage came out at 0.03.

For G36U A79G A129U, the self-cleavage stood at 1.37.

With G34A G36A U45C C116U, the self-cleavage was determined as 0.54.

Take G36A A50G C56U A59G U73G: the self-cleavage turned out to be 0.

Turning to G34U A43G U46C U91C, the self-cleavage was 0.

On to G34U G106U U115C, for which the self-cleavage was 1.69.

On to G34U G93A U104C, for which the self-cleavage worked out at 0.01.

As to G33U A42G A79G U91C A142G, the self-cleavage is 0.

In the case of G35A C56U G106A U115A, the self-cleavage worked out at 0.17.

In the case of C37A U96C G125U C131U, the self-cleavage is 0.08.

Consider G33U U100C A129U, for which the self-cleavage worked out at 1.99.

As for G34U C38A A77G A138G, the self-cleavage was determined as 1.7.

For G36A A57U A79G, the self-cleavage was determined as 0.1.

G34A G54U A67G U134C: the self-cleavage amounted to 0.28.

As for G35A A42U U45A G75A, the self-cleavage worked out at 0.6.

In the case of G36C U81C A124C, the self-cleavage worked out at 0.86.

Take C37A A69G C103U U143A: the self-cleavage is 0.56.

As to G35A U73C A124U U130C, the self-cleavage turned out to be 2.1.

Regarding G34A U85C U91C C98U, the self-cleavage was 0.

In the case of G35A U73A A78C, the self-cleavage turned out to be 0.32.

In the case of C37A U45C A59G, the self-cleavage was 0.08.

As to G33U A42U A138G, the self-cleavage is 0.91.

G34A C71U U102C A107G A124G: the self-cleavage amounted to 0.18.

As to G36U U91C U108C A141G, the self-cleavage amounted to 0.66.

In the case of G36C U73A U109C U112C, the self-cleavage worked out at 0.63.

With G34A U119C A136U, the self-cleavage turned out to be 1.55.

As for G34A A42G G55A A124U, the self-cleavage came to 0.45.

With G34A A77G A136U A141G, the self-cleavage was determined as 1.45.

With G35A U91C U100C A124G, the self-cleavage amounted to 0.33.

Turning to G34A U39G G41U, the self-cleavage was found to be 0.94.

Consider G35A U39G A65G A69C, for which the self-cleavage was 0.08.

On to G34U A65G G72U U73C, for which the self-cleavage worked out at 0.03.

For G34A A42G U52C, the self-cleavage was found to be 0.86.

For the variant G36A U73C A77G U85C, the self-cleavage came to 0.17.

C37G A50C U81A A141G: the self-cleavage is 1.52.

Consider C37A A50G C90U G126C, for which the self-cleavage was 0.02.

Turning to G33U A59G U62A U102C A138U, the self-cleavage amounted to 0.

For G34C A59G G74U A107C A129G, the self-cleavage amounted to 0.

Take G35C A65U A77U: the self-cleavage is 0.18.

On to G34U C99U A107G, for which the self-cleavage is 0.85.

With G35A U85C U104C, the self-cleavage came out at 0.

Take G35A G60C A77U U100C: the self-cleavage stood at 0.03.

With G34A A69U A142G, the self-cleavage amounted to 0.03.

Consider G34A U91C A129C, for which the self-cleavage came out at 1.23.

Turning to G36A A77U U85C, the self-cleavage was 0.05.

G36U U52G A121U: the self-cleavage was found to be 1.67.

Take G36C U85C A121G: the self-cleavage amounted to 0.45.

On to G34A U73C A129U, for which the self-cleavage was 1.53.

Consider G34U U47C A64G, for which the self-cleavage came out at 0.

As for G35A A50G A64U A94G, the self-cleavage came to 0.02.

On to G34C U130C A141G, for which the self-cleavage worked out at 1.97.

As for G36A U62A A79G A136G, the self-cleavage turned out to be 0.03.

Take G34A A78G G106A U112C A136G: the self-cleavage came to 1.2.

G35A C71U A77U: the self-cleavage came out at 0.67.

As for G36U U102A A136U, the self-cleavage came out at 1.53.

G36A U39C U130C: the self-cleavage was 1.74.

For the variant G35A A64G U109A A121U U130A, the self-cleavage came out at 0.15.

Take G33U A42G A107G: the self-cleavage came to 0.5.

For the variant G35C U73A A136U, the self-cleavage came out at 1.01.

Take G36U U46C U104C A129G: the self-cleavage is 1.39.

As for G34C C95U U115C, the self-cleavage was determined as 0.4.

As for G35U U115C U134C, the self-cleavage turned out to be 1.32.

Take G36A U46C U132C: the self-cleavage is 1.64.

Take G36A U81C U130A U132C: the self-cleavage was found to be 1.42.

Consider G34A U115C U143C, for which the self-cleavage worked out at 1.29.

For C37A U62A A78G A140G, the self-cleavage came out at 0.07.

On to G35U C66G C99U, for which the self-cleavage amounted to 0.03.

On to G35A U85C A117G, for which the self-cleavage was 0.03.

With G33U C61U C68U A69G U91C A94G, the self-cleavage amounted to 0.06.

Take G34A U62C G126U: the self-cleavage came to 0.04.

For the variant G34A G88U U112C, the self-cleavage was 0.04.

As for G34A C51U U96C, the self-cleavage is 0.15.

On to C37A U39C G86A U91C, for which the self-cleavage came out at 0.07.

On to G35A A43U U62C A65U A138G A142G, for which the self-cleavage came out at 0.04.

On to G33U G114A A138G, for which the self-cleavage turned out to be 1.32.

For G34U C51A U73C, the self-cleavage was found to be 1.09.

Turning to G35A A50G U112A, the self-cleavage came to 0.71.

Consider G34A A42G U46A U47C A69G A124G, for which the self-cleavage was 0.

G36C G40A U132A A140U: the self-cleavage came out at 1.08.

In the case of G34U U81G G89A, the self-cleavage turned out to be 0.04.

Regarding G34U U85C A117G, the self-cleavage was determined as 0.

In the case of G33U A121U A124U, the self-cleavage stood at 0.89.

As to G34A A92U A136U, the self-cleavage worked out at 0.54.

With G36A A77G A121G, the self-cleavage was 2.56.

On to G34A U39A A57U, for which the self-cleavage turned out to be 0.03.

Consider G35U A59G U119A, for which the self-cleavage was determined as 0.09.

Consider G35A A57G U130C A142G, for which the self-cleavage stood at 0.88.

As for G34C G125A A136U, the self-cleavage stood at 1.78.

On to G36U A42G U45A, for which the self-cleavage worked out at 0.97.

On to G35A A67G A79G, for which the self-cleavage was determined as 0.59.

In the case of G36A U47A U85C U109C, the self-cleavage worked out at 0.05.

For G33C U45C A79G, the self-cleavage came to 1.53.

As to G35C U73C G74A G127A, the self-cleavage amounted to 1.24.

In the case of G36C A77G U112A A129U, the self-cleavage was 2.6.

G34A A50G A78G U112C: the self-cleavage worked out at 0.29.

G36A C51U A65C G74U A78G G93A A141G: the self-cleavage worked out at 0.02.
